Results: the supplement of paper PMC3334620
Whole data set: some 33,000 sequences, median “E-score (-0.5 to 0.5)” near -0.053, cut for the highest 2% near 0.37. The list shows a part of the results.

These sequences were tested against Hap1 (UniProt P0CE41) (assay: PBM E-score (8-mer binding enrichment) (E-score (-0.5 to 0.5)); higher = stronger / more preferred TF binding; most listed sequences are background and not binding sites). Conditions: protein concentration: 200 nM; construct: GST-DNA-binding domain.
Outline: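 Each ungapped eight-base word and its reverse complement, pooled, received an E-score from the Universal PBM Analysis Suite. Underlying scans, normalised with masliner, recorded fluorescent anti-GST bound to GST-tagged yeast transcription factors. These were applied at about 100-200 nM to universal all-10-mer Agilent arrays double-stranded by primer extension.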

UniProt P0CE41, sequence (P0CE41 whole entry, the tested form may be a part): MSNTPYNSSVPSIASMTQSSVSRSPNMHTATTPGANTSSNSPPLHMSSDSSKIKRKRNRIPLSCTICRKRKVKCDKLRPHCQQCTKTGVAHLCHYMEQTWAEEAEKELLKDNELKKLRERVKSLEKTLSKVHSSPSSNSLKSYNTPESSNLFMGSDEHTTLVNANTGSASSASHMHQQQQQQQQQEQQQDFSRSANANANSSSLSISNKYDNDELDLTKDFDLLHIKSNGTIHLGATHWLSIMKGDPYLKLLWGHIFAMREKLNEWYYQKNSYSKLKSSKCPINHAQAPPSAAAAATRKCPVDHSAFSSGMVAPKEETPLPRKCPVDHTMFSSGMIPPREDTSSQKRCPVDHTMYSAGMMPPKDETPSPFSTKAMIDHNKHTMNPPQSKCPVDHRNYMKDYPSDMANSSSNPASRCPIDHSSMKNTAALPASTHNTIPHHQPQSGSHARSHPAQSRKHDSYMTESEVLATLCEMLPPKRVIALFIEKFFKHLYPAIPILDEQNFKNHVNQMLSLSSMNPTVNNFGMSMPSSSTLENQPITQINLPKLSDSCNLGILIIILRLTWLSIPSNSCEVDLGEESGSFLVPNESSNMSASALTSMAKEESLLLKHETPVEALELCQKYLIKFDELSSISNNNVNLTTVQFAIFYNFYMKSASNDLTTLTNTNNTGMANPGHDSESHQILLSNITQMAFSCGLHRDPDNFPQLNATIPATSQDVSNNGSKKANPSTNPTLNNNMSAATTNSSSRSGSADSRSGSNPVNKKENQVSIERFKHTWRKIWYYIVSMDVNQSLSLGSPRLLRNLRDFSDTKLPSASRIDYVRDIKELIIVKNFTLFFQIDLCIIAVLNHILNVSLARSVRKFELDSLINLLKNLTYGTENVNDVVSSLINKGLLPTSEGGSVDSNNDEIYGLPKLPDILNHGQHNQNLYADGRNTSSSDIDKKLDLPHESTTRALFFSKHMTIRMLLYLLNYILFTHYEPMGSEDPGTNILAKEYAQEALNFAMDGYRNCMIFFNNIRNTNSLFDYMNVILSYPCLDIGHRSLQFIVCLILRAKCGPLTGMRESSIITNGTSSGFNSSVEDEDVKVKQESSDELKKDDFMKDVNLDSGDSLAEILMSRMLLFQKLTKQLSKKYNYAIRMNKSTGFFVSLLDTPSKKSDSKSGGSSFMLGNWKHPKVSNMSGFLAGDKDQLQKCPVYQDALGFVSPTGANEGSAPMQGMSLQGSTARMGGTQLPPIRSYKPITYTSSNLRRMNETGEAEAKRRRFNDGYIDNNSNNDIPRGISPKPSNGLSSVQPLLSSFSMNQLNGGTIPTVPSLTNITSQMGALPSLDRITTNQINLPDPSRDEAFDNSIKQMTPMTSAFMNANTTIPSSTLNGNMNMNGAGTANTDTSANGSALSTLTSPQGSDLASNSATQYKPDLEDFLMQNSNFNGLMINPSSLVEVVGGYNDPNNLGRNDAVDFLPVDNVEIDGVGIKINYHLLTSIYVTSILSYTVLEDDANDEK

Sequence	PBM E-score
CCAATTGG	-0.226
CGCTCGAA	0.104
ACAAACCG	0.12
GACAAGTA	0.0622
AAACCACA	-0.0624
AGAGCTTC	-0.12
AGGTCCTG	-0.0186
ACGAAACG	-0.0502
CACTCAAC	-0.0685
GGTGGATA	0.00336
TAGATAAA	0.0219
CACCGGGG	0.339
GATACTGC	-0.0243
AGACGTCC	0.00542
ATCTGAAA	-0.05
CCCTGTAG	0.0186
CGGTGGGA	0.0972
CCCACAAC	-0.162
ATAGGCCA	0.109
AAAACTCT	-0.127
CACTCGCA	-0.0612
ATTCACTG	-0.23
AGCGTGCA	-0.0508
CTAATGGC	0.014

Sequence	PBM E-score
CAATTGGA	-0.157
ATGGTTTC	-0.0197
ACCGGGCG	0.385
ATGCTAGC	0.0591
AGTACTGA	-0.182
AATCAGTC	-0.116
CAGACCGC	0.156
ACTATCAG	-0.256
CACATTCA	-0.14
CCAAAAAC	0.0207
AGATCTCG	0.0764
AAGCAAGA	-0.126
ACCATTGA	-0.256
CTTATAGA	-0.153
TAAGTCAA	-0.235
GACAATCC	0.113
GTATCGTA	-0.168
GCCTACGA	-0.0526
ACCACGCC	-0.0562
TCGACCGA	0.393
CGGCCCGA	0.398
CAACCCCC	-0.182
CGAATAAG	0.0623
CAACACGA	-0.182

Sequence	PBM E-score
CAAGTCCA	-0.222
AACGCAAG	-0.183
AGGAGAAG	-0.149
AATAATAT	0.22
CTTGTCAA	-0.0852
AGCCATTC	-0.142
AGTACGAC	0.0148
CCACATGG	-0.185
CACGTGTA	-0.109
GACATCTA	-0.0742
AAGTCTGA	-0.412
CGAGGCCG	0.158
CTAGGGAC	-0.246
CAGCCATA	-0.136
CACAGAAC	-0.226
GTGTCTCA	-0.187
GAGGTCCA	-0.0572
CAAACTGG	-0.224
ACGGGGAT	0.383
CACCCTCG	-0.0066
AACGAATA	-0.0397
GCAGTAGC	-0.133
TTGGAAAA	-0.222
AGGCAATA	-0.181

Sequence	PBM E-score
CTTGGGTC	-0.126
AGCTGTTG	-0.172
TCGAGTAA	-0.183
AGGCGCCT	-0.158
ATGAGAAG	-0.185
ACGCGAGC	0.0186
CCCCCCGC	-0.113
GGCAGGCC	0.00635
GCTGTGCA	-0.127
CAAAGGTG	-0.242
GGCCAGCA	-0.0771
AATCCTAT	0.204
CCAGGTTC	-0.153
GGAGACAA	0.22
CCCAATCC	-0.0192
CCATCAGC	-0.226
CTTTCCTC	-0.145
GCGACCCA	0.0347
AGAGGATA	-0.198
ATGATCCG	0.3
AGTGGTAC	-0.295
ACGTTCCG	0.208
